Results published in publication PMC4336329 (PLoS ONE, 2015).
In all, about 310,000 compounds went through this assay and about 2,200 (0.71%) showed an effect of 50% or more. The effect is printed as a negative number. This is one part of the list.

target: human ether-à-go-go-related gene (hERG) potassium channel (human, UniProt Q12809); assay: primary screen, population patch clamp on CHO cells stably expressing hERG
Sequence (Q12809 whole entry, looked up): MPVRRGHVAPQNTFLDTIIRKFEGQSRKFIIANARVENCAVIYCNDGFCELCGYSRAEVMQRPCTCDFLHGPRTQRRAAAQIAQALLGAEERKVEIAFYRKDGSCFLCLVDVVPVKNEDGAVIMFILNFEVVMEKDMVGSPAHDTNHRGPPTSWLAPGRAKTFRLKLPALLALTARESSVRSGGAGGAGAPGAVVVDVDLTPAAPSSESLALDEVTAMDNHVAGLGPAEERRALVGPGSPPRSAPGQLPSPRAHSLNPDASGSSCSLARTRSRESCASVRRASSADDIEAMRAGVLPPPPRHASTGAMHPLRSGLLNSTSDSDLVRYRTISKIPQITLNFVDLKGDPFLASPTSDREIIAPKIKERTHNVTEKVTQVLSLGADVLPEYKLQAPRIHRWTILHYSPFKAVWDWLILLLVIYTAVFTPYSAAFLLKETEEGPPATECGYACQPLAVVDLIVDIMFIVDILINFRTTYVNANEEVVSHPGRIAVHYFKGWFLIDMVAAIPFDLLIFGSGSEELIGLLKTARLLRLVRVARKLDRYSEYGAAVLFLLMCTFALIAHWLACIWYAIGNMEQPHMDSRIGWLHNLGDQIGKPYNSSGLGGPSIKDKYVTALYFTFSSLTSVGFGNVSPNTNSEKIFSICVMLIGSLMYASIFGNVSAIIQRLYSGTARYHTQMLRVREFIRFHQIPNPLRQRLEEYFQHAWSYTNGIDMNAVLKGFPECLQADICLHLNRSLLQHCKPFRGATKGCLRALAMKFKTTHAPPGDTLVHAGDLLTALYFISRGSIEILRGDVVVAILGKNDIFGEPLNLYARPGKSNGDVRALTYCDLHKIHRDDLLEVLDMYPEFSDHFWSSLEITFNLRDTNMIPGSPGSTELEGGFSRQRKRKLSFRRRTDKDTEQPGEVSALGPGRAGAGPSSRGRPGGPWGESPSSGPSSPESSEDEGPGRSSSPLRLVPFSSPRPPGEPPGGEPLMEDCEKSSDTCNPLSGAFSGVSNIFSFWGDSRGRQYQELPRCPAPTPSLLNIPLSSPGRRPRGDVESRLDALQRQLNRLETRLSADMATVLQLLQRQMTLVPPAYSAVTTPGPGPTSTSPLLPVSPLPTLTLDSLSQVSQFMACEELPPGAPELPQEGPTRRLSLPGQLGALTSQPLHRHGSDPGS

SMILES	hERG current change (%, negative = inhibition) at 1uM [%]
COc1ccccc1C(=O)NNC(=O)c1ccccc1Br	21
CC(=O)c1ccc(N2CCN(C(=O)c3cc(-c4ccc5c(c4)OCO5)nc4ccccc34)CC2)cc1	13.1
CCOc1ccc(-c2cccc(NC(=O)COc3ccc(Cl)cc3)c2)nn1	7.7
CC(O)CNc1nc2c(c(=O)n(C)c(=O)n2C)n1Cc1cccc(C(F)(F)F)c1 (stereo not shown)	1.17
COc1ccc(C2/C=C\CN(S(=O)(=O)/C=C/c3ccccc3)CC(=O)N2Cc2ccc(F)cc2)cc1 (stereo not shown)	8.33
CCOC(=O)C1=C(Cc2ccc(F)cc2)C(=O)c2ccccc2C1=O	6.27
COc1ccc(OC)c(N/C(C)=C/C(=O)c2ccc(Br)cc2)c1	3.82
COc1cccc(CNc2nnnn2C)c1	12
CC(=O)Nc1cccc(NC(=O)c2ccc(C(=O)Nc3cccc(NC(C)=O)c3)nc2)c1	17.5
CC(=O)c1ccc(C)cc1OC(=O)c1cccc(F)c1	16.4
Cc1cc(C)c(/C=C(\C#N)C(N)=S)c(C)c1	6.32
O=C(c1ccc(-n2cccn2)cc1)N1CCc2c([nH]c3ccccc23)C1c1ccccn1 (stereo not shown)	5.13
Cc1ccc(C(=O)NNc2cc(=O)n(C)c(=O)n2C)cc1C	3
COc1cccc(NC(=O)c2sc3nc(N4CCOCC4)c4c(c3c2N)CCCC4)c1	13.7
CC1Cc2cc(S(=O)(=O)N3CCC(C(=O)N(C)Cc4ccco4)CC3)ccc2N1C(=O)C1CCC1 (stereo not shown)	9.84
CC(=O)c1ccc(OCCCC(=O)NCCc2ccccc2)cc1	8.81
Cc1ccc(C(=O)N/N=C/c2ccc(-c3cccc(Cl)c3)o2)cn1	9.42
COc1ccc(-c2cc(C(=O)N3CCN(S(=O)(=O)c4ccccc4)CC3)[nH]n2)cc1	7.23
Cc1nc(=O)c(-c2ccccc2)c(C)n1CCCCCC(=O)O	13.7
Cc1ccc(CN2C(=O)c3ccccc3Sc3ccc(C(=O)NCCN4CCOCC4)cc32)cc1	18.8
CC(=O)c1cccc(NC(=O)c2ccc(Br)o2)c1	-5.03
Cc1ccc(C(=O)C2C(c3ccc(-c4ccccc4[N+](=O)[O-])o3)NC(=O)NC2(O)C(F)(F)F)cc1 (stereo not shown)	4.51

SMILES	hERG current change (%, negative = inhibition) at 1uM [%]
O=C(N/C(=C\c1cccnc1)C(=O)N1CCCCC1)c1cccc(Br)c1	8.59
COc1cc2ccccc2cc1C(=O)NCC(c1cccs1)N(C)C (stereo not shown)	-0.172
Cc1cnn(C(=S)NCc2ccco2)c1	6.08
COc1ccc(-c2noc(CNS(=O)(=O)c3ccccc3)n2)cc1	12.5
O=C(c1cc(-c2ccc(Cl)cc2)on1)N1CCCCCC1	7.56
Cc1ccc(C(=O)N/C(=C\c2sccc2C)C(=O)NCc2ccncc2)cc1	-1.07
O=C(NCCN1CCOCC1)c1cc(-c2ccc(Br)cc2)on1	-2.35
COc1ccc(C2SC[C@@H](C(=O)O)N2C(C)=O)cc1 (stereo partly shown)	7.05
O=C(NCCN1CCOCC1)c1csc2c1CCCCC2	12.1
Cc1cc(-n2c(C)cc(C(=O)CN3C(=O)NC4(CCCC4)C3=O)c2C)no1	5.19
Cc1ccc(C)c(Cn2c(O)c(N=NC(=S)Nc3ccccc3F)c3ccccc32)c1	12.8
O=C(COc1ccccc1Cl)NCCCNC(=O)c1ccccn1	13.4
Cc1ccc(NC(=O)Cc2nc(CN(C)CC(=O)Nc3ccc(C)cc3)cs2)cc1	9.42
Cc1cccc(NC(=O)NC2CC3CCC(C2)N3Cc2ccco2)c1 (stereo not shown)	-8.04
Cc1ccc(CNC(=O)C2CCC(=O)N(C3CCCC3)C2)c(F)c1F (stereo not shown)	16
C1CCN=C(Nc2nc3c(s2)CCCC3)CC1	6.06
Cc1nn(C)cc1C(C(=O)NC1CCCCC1)N(C(=O)Cc1cccs1)c1ccc(C(C)C)cc1 (stereo not shown)	-5.21
COc1ccc(C2CN=NC23CCCc2ccccc2C3=O)cc1 (stereo not shown)	13.1
CN1C2Cc3c(n(C)c4ccccc34)C1CC=C2CO (stereo not shown)	14.8
COc1cccc([C@H](O)Cn2cc(-c3ccc(CON=C(C)C)cc3)nn2)c1	16.1
Nc1c(C(=O)CSc2ncccn2)c(=O)[nH]c(=O)n1C1CC1	8.01
COc1cccc(/C=C/C(=O)N2CC(C)OC(C)C2)c1OC (stereo not shown)	13.3

SMILES	hERG current change (%, negative = inhibition) at 1uM [%]
CCC(=O)Nc1sc2c(c1C(N)=O)CCN(C(C)=O)C2	15.2
Cc1cc2ncn(CC(O)COc3cccc(C(=O)O)c3)c2cc1C (stereo not shown)	-12.6
O=C1/C(=C/c2ccc(F)cc2)SC(=S)N1CCCC(=O)N1CCCCC1CCO (stereo not shown)	10.3
CCCNS(=O)(=O)c1cccc(C(=O)NC2CCCc3ccccc32)c1 (stereo not shown)	-15.6
CCCc1nnc(NC(=O)CCC(=O)NCc2ccccc2OC)s1	23.2
Cc1ccc(SCc2[nH]nc3c2C2(C(=O)Nc4ccc(F)cc42)C(C#N)=C(N)O3)cc1 (stereo not shown)	6.88
Cc1ccc(NC(=O)CSCC(=O)N2CCCc3ccccc32)cc1	5.83
COc1ccc(S(=O)(=O)N/N=C\c2ccc3c(c2)OCO3)cc1	-4.43
CCS(=O)(=O)Nc1ccc(C2=NN(C(=O)c3ccco3)C(c3cccc(F)c3)C2)cc1 (stereo not shown)	0.693
O=C(CC(C(=O)N1CCc2ccccc21)n1ccnc1)NCC1CCCO1 (stereo not shown)	9.19
C1CCNCC1.N#CC1=C(N)Oc2cc(O)ccc2C1c1ccc2c(c1)OCO2 (stereo not shown)	10.2
Cl.O=[N+]([O-])c1ccc(CN2CCN(c3ccc4ccccc4n3)CC2)cc1	-1.76
O=C(C[n+]1ccc(C(=O)NCc2ccccc2)cc1)c1ccc2c(c1)OCCO2.[Br-]	12.6
O=C(C1CC1)N1CCc2cc(Br)cc(S(=O)(=O)NCc3ccc4c(c3)OCO4)c21	-16.7
O=C1OC(C(=O)O)Cc2ccccc21 (stereo not shown)	4.48
O=C(NCc1ccccc1)c1cc2ccc(O)cc2oc1=O	28.9
CCS(=O)(=O)C1=NSC2=NC(=O)/C(=C\c3ccc(OC(=O)c4ccco4)c(OC)c3)C(=N)N21	9.83
O=C(CSc1ccc([N+](=O)[O-])cc1)NCC1CCCCC1	-3.33
O=C(NCCN1CCN(c2ccccc2Cl)CC1)Nc1ccccc1	10.1
COC(=O)c1ccc(N)c(CS(=O)(=O)c2ccc(Cl)cc2)c1	10.4
O=C(Nc1cccc(C(F)(F)F)c1)c1cc2c(s1)-c1ccccc1OC2	-0.0218
CCOC(=O)CN1C(=O)CCSc2ccc(Cl)cc21	16.9

SMILES	hERG current change (%, negative = inhibition) at 1uM [%]
CCCC(C)NC(=O)c1cc(Cl)ccc1OC (stereo not shown)	-3.7
Cc1ccc([N+](=O)[O-])cc1S(=O)(=O)Nc1ccc(C(=O)NCC2CCCO2)cc1 (stereo not shown)	7.74
O=C(NCC1OCCc2ccccc21)c1ccc(NC(=O)c2cccc(Br)c2)cc1 (stereo not shown)	7.53
Cc1[nH]c2ccc(C(=O)Nc3ccncc3)cc2c1C	6.29
O=C(O)/C=C/C(=O)NCCc1ccccc1	30
O=C(COC(=O)CNS(=O)(=O)c1ccc(F)c(F)c1F)NC1CC1	5
Cc1ccc(C)c(OCCC(=O)OCC(=O)NCc2ccc(F)cc2)c1	-1.67
O=C(CN1CCC(Cc2ccccc2)CC1)NC(=O)NCc1ccco1	-1.19
Nc1ccn(Cc2ccc(F)cc2)n1	5.46
O=C(NCCc1cccs1)C1CC1	11.9
Cc1c(-c2cccc(Cl)c2)nc2ccccc2c1C(=O)NC1CC1	-3
CS(=O)(=O)NCCCc1ccccc1	15.6
Cc1cc(C)n2nc(C(=O)Nc3cccc(S(=O)(=O)N(C)c4ccccc4)c3)nc2n1	-18.7
CCOC(=O)c1ccc(NC(=O)c2nc[nH]c2C(=O)NCCCCNC(=O)c2[nH]cnc2C(=O)Nc2ccc(C(=O)OCC)cc2)cc1	16.5
CC(C)CCNC(=O)c1cc2c(=O)[nH]c3ccccc3c2s1	12.8
CNc1ccc(/C=C(\C#N)C(=O)Nc2ccccn2)cc1[N+](=O)[O-]	16.3
CCC1CN(C(=O)NCc2ccc(C)cc2)c2cc(C)ccc2O1 (stereo not shown)	9.84
CC(C)OC(=O)c1cc(NC(=O)c2nn(C)cc2Br)cc(C(=O)OC(C)C)c1	10.9
Cc1cc(S(=O)(=O)N2CCN(c3c(C)cccc3C)CC2)ccc1F	-0.574
COc1cccc(OC)c1C(=O)NC(=S)Nc1ccc(N2CCOCC2)c(Cl)c1	11.8
Cc1c(C(=O)NC(C)c2ccccc2)c(-c2ccccc2)nn1-c1ccccc1 (stereo not shown)	13
Cc1nc(-c2cccs2)sc1C(=O)NN	12.1
